From PubChem BioAssay AID624418 (National Center for Advancing Translational Sciences (NCATS), 2012)
Hit rate of the full screen: of about 410,000 compounds, about 530 (0.13%) were called active. This list was built around the results that the source calls inconclusive (neither active nor inactive); the mix of calls is not that of the screen. Calls come from the whole dose curve; as a rule, active = well fitted inhibition curve with a large enough effect; inconclusive = small, poorly fitted or top-dose-only effect, or another doubt; inactive = no such curve, though single readings can be large or run the other way. A potency beside an inconclusive call is a rough fit, not a confirmed value.

Test: qHTS of GLP-1 Receptor Inverse Agonists: Cytotox Screen
Conditions: HEK293 cAMP-luciferase reporter cells, luminescence, 24 h; series mostly up to 38.3 µM
Method in brief: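 1536-well qHTS counterscreen of the MLSMR; 200 cells/uL, 12 h pre-incubation, 23 nL cpd, 24 h at 37 deg C 5% CO2, luciferase detection reagent, 12 min RT, luminescence. Inhibition = undesired.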
Potency is the fitted concentration of half-maximal effect.

SMILES | Potency
CC1=C(C)CS(=O)N(S(=O)(=O)c2ccccc2)C1 (stereo not drawn) | inconclusive: 12.6 µM [inhibitor, single point]
CN1CCN(S(=O)(=O)c2cccc(C(=O)Oc3ccc(Br)cc3F)c2)CC1 | inconclusive: 11.2 µM [inhibitor, single point]
O=c1c2ccccc2nc(N/N=C/c2ccc(O)cc2)n1O | inactive
Cc1nn2c(=O)cc(COC(=O)c3ccccc3NC(=O)C(C)Oc3ccccc3)nc2s1 (stereo not drawn) | inactive
COc1ccc(NC(=O)N(C)[C@H]2C[C@H]3c4[nH]c5ccc(-c6ccc(OC)cc6)cc5c4CCN3C[C@H]2[C@H](C)O)cc1 | inconclusive: 28.2 µM [inhibitor, single point]
Cc1ccc2nc(NC(=O)c3ccccc3F)sc2c1 | inconclusive: 7.08 µM [inhibitor, partial curve, poor fit]
Cc1ccc(-n2c(=O)c3ccc(C(=O)NCc4ccco4)cc3n(Cc3ccccc3C#N)c2=O)cc1 | inconclusive: 28.2 µM [inhibitor, partial curve, poor fit]
CCOC(=O)c1ccc(-n2c(C)ccc2C)cc1 | inactive
CCOc1ccc(CNS(=O)(=O)c2cc3c(cc2C)NC(=O)CO3)cc1 | inactive
OC(COCc1ccc(Cl)cc1)CN1CCN(CC(O)COCc2ccc(Cl)cc2)CC1 (stereo not drawn) | inconclusive: 5.62 µM [inhibitor, partial curve]
CCc1cnc2c(c1SCC(=O)c1ccc(Cl)cc1)c(=O)n(C)c(=O)n2C | inactive
CCOC(=O)C1=C(c2ccccc2)OC(N)=C(C#N)C1c1ccncc1 (stereo not drawn) | inconclusive: 28.2 µM [inhibitor, single point]
O=C(Nc1cccc(C(F)(F)F)c1)c1cc(-c2ccc3c(c2)OCCO3)on1 | inactive
COc1ccc(Nc2oc(-c3ccccc3Cl)nc2C#N)cc1 | inconclusive: 3.55 µM [inhibitor, partial curve]
Cn1c(SCC(=O)NCC2CCCO2)nnc1-c1ccc(S(=O)(=O)N2CCCC2)cc1 (stereo not drawn) | inactive
CCN(CC)CCCNC(=S)N1CCN(c2nc(-c3ccc(F)cc3)cs2)CC1 | inconclusive: 6.31 µM [inhibitor, single point]
COc1cc(/C=C/c2cc(C(=O)O)c3ccccc3n2)cc(OC)c1O | inconclusive: 10 µM [inhibitor, single point]
CCNC(=S)N=Nc1c(O)[nH]c2ccc(C(C)C)cc12 | inconclusive: 5.62 µM [inhibitor, partial curve]
CCC1Nc2ncnc(N3CCOCC3)c2N(Cc2ccc(OC)cc2)C1=O (stereo not drawn) | inactive
O=C(Nc1nnc2n1CCS2)c1ccccc1C(F)(F)F | inactive
Cc1cc(C)nc(-n2nc(C)cc2NC(=O)CNC2CCCCC2)n1 | inconclusive: 28.2 µM [inhibitor, single point]
Oc1c(Cl)cc(Oc2cc(Cl)c(O)c(CN3CCOCC3)c2)cc1CN1CCOCC1 | inactive
COc1ccccc1NC(=S)NCC1CCCCC1 | inconclusive: 12.6 µM [inhibitor, partial curve, poor fit]

SMILES | Potency
O=C(NCc1cccnc1)C1CCC(c2ccc(Cl)cc2)CC1 (stereo not drawn) | inactive
O=C(Nc1cccc(Cl)c1)c1ccccc1 | inconclusive: 14.1 µM [inhibitor, single point]
CCN1CCN(Cc2ccc(NC(=O)c3ccc(C)c(NC(=O)c4cc(-c5ccc(Br)cc5)n[nH]4)c3)cc2C(F)(F)F)CC1 | inconclusive: 28.2 µM [inhibitor, single point]
Cc1c(C(=O)C(=O)N2c3ccc(F)cc3CCC2C)c2ccccc2n1C (stereo not drawn) | inconclusive: 2.82 µM [inhibitor, full curve]
CCOc1ccccc1CNC(=O)c1ccc2nc(N3CCOCC3)sc2c1 | inconclusive: 3.55 µM [inhibitor, full curve]
CCCN1CN(Cc2ccccc2)CNC1=S | inconclusive: 28.2 µM [inhibitor, single point]
O=[N+]([O-])c1c(NCCCO)cc(SCc2ccco2)c2nonc12 | inconclusive: 20 µM [inhibitor, single point]
NC(=S)NN=Cc1nccc2c(N)cccc12 | inconclusive: 2.82 µM [inhibitor, partial curve, poor fit]
CCOc1ccc(NC(=O)Nc2cccnc2)cc1 | inconclusive: 11.2 µM [inhibitor, single point]
CC1(C(=O)Nc2ccc(Cl)c(C(F)(F)F)c2)Cc2c(-c3ccc(C(N)=O)cc3)ccnc2O1 (stereo not drawn) | inconclusive: 3.55 µM [inhibitor, partial curve, poor fit]
O=C(c1ccc(Cl)cc1)c1c[nH]c(C(=O)NNc2ccccc2)c1 | inconclusive: 3.98 µM [inhibitor, full curve]
CC(C)(C)c1ccc(C(=O)NCC(c2ccco2)S(=O)(=O)c2ccc(F)cc2)cc1 (stereo not drawn) | inconclusive: 14.1 µM [inhibitor, single point]
CCNc1c(C(=O)O)ccc2c1C(=O)c1ccccc1C2=O | inconclusive: 12.6 µM [inhibitor, single point]
O=C1NC[C@H](Cc2ccccc2)N(C[C@H]2CCCN2C[C@H](Cc2ccccc2)N2C[C@H](Cc3ccccc3)N(CC3CCCCCC3)C(=O)C2=O)C1=O | inconclusive: 11.2 µM [inhibitor, single point]
COc1ccc(Cn2c(C(=O)O)c(CNCc3ccco3)c3ccc(OC)cc32)cc1 | inactive
O=C(/C=C/c1ccccc1)Nc1scc(-c2ccccc2)c1C(=O)O | inactive
NC(N)=N/N=C/c1ccc(OCc2ccccc2)c(OCc2ccccc2)c1 | inconclusive: 11.2 µM [inhibitor, single point]
CCOC(=O)C(=O)N(Nc1ccc(C)cc1)c1ccc(C)cc1 | inactive
CCOC(=O)C1CCCN(S(=O)(=O)c2ccc(C)cc2)C1 (stereo not drawn) | inactive
O=C(NNc1ccc(F)cc1F)C1CCC1 | inconclusive: 12.6 µM [inhibitor, single point]
COc1ccc(NC(=O)COC(=O)c2c3c(nc4ccccc24)CCCC3)cc1Cl | inconclusive: 7.08 µM [inhibitor, partial curve]
S=C1NCN(CCc2ccccc2)CN1Cc1ccccc1 | inconclusive: 11.2 µM [inhibitor, partial curve, poor fit]
Cc1cc(C)nc(N/N=C/c2ccc(Cl)cc2)n1 | inconclusive: 0.708 µM [inhibitor, full curve, poor fit]

SMILES | Potency
COC(=O)c1c(C)[nH]c(C(=O)CSc2ccc(Cl)cc2)c1C | inconclusive: 31.6 µM [inhibitor, single point]
O=C(NC(=O)c1ccccc1)C1=C(N2CCCC2)COC1=O | inconclusive: 0.501 µM [inhibitor, full curve, poor fit]
Cc1ccccc1-c1nn(-c2ccc(F)cc2F)cc1CNCCCN(C)C | inconclusive: 28.2 µM [inhibitor, single point]
COc1ccc(COC(=O)Oc2ccc(CNC(C)=O)cc2OC)c([N+](=O)[O-])c1 | inconclusive: 28.2 µM [inhibitor, single point]
COc1ccccc1NC(=S)NCCc1ccc(Cl)cc1 | inactive
COc1cccc(C(=O)NC2CC3CCCC(C2)N3CC(=O)Nc2ccccc2)c1 (stereo not drawn) | inactive
Cn1cc(Cl)c(C(=O)N/N=C/c2ccc(OS(=O)(=O)c3ccccc3)cc2)n1 | inconclusive: 10 µM [inhibitor, partial curve]
Fc1ccccc1/C=N/n1c(C2CCCCC2)n[nH]c1=S | inconclusive: 10 µM [inhibitor, partial curve]
Cc1cc(SCC(=O)NN)c2cc(Br)ccc2n1 | inconclusive: 12.6 µM [inhibitor, single point]
COc1ccc(NS(=O)(=O)c2cccc(C(=O)NCC(c3ccc(OC)cc3)N3CCCCC3)c2)cc1 (stereo not drawn) | inactive
CCOC(=O)N1CCN(C(=O)C2CCN(C(=O)c3ccccc3C)CC2)CC1 | inactive
CCOc1ccc2nc(N(CCCN(C)C)C(=O)c3ccc(C(=O)c4ccccc4)cc3)sc2c1 | inconclusive: 28.2 µM [inhibitor, single point]
O=C(O)c1cc(Nc2cc(Cl)c3nonc3c2[N+](=O)[O-])ccc1O | inconclusive: 11.2 µM [inhibitor, single point]
O=S(=O)(c1ccc(Br)cc1)N1CCN(c2cc(-c3ccccc3)nc3ncnn23)CC1 | inactive
CC(C)Cn1nc(C(=O)NCc2ccccc2CN2CCCC2)c2ccccc2c1=O | inconclusive: 28.2 µM [inhibitor, single point]
CSc1nc(NCCN(C)C)c2sc3nc(-c4ccco4)c4c(c3c2n1)CCC4 | inconclusive: 20 µM [inhibitor, single point]
Nc1[nH]c(=S)nc2nc(-c3ccccc3)c(-c3ccccc3)nc12 | inconclusive: 28.2 µM [inhibitor, single point]
CCN(CC)c1ccc(/C=N/Nc2nc(C)cc(C)n2)cc1 | inconclusive: 5.01 µM [inhibitor, partial curve]
CC1(C)CC(=O)C2=C(C1)OC1=C(C(=O)CC(C)(C)C1)C2c1ccc(O)cc1O | inconclusive: 14.1 µM [inhibitor, single point]
COc1cccc(N2C(=O)C(CC(=O)Nc3ccc(Cl)cc3)N(Cc3ccc4c(c3)OCO4)C2=O)c1 (stereo not drawn) | inactive
COc1ccc2c(c1)cc1c(=O)n(CC(=O)NCCCN3CCOCC3)nc(C)n12 | inconclusive: 28.2 µM [inhibitor, single point]
CC(OC(=O)C1CCN(S(=O)(=O)c2ccc(C(C)(C)C)cc2)CC1)C(=O)N1CCOCC1 (stereo not drawn) | inactive
